Results as given in PMC4336329 (PLoS ONE, 2015).
Hit rate of the full screen: of about 310,000 compounds, about 14,000 (4.5%) showed an effect of 50% or more. Effects have a minus sign here. Some of the results follow.

molecular target: human ether-à-go-go-related gene (hERG) potassium channel (human, UniProt Q12809); test: primary screen, population patch clamp on CHO cells stably expressing hERG
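Further: peak tail current of the secondary pulse compared with the same well before compound.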

Chain of human ether-à-go-go-related gene (hERG) potassium channel (Q12809 whole entry, looked up): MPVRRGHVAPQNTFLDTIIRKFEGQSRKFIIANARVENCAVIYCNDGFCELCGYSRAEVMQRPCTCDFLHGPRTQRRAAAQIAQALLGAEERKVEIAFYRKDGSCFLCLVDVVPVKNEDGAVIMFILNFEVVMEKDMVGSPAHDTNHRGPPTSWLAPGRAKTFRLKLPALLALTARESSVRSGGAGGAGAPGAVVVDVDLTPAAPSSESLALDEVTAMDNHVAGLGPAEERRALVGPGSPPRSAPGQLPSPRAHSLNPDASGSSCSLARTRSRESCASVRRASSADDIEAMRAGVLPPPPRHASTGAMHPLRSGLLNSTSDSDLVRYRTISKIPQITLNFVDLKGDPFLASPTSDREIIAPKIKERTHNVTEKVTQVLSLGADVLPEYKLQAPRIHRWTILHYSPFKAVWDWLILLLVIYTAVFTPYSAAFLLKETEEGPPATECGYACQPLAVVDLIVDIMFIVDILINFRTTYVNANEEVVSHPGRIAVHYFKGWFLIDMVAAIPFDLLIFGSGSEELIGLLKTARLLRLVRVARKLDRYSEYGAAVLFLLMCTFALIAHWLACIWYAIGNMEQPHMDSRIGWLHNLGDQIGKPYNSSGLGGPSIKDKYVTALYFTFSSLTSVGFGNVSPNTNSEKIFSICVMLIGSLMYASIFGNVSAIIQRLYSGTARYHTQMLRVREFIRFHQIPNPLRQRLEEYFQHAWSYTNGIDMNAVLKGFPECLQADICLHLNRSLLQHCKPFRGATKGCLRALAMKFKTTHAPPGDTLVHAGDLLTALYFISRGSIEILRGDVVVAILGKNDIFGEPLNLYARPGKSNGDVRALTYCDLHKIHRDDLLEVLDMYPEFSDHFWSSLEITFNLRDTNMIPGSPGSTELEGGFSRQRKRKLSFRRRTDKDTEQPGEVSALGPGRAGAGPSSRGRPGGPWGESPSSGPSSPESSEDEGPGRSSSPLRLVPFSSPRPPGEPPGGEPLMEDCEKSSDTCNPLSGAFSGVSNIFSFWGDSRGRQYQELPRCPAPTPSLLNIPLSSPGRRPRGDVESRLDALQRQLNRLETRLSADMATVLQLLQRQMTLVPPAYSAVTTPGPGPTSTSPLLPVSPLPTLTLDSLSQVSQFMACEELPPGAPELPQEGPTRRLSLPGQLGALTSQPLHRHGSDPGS

Row | Compound | hERG current change (%, negative = inhibition) at 10uM [%]
1 | CCOC(=O)[C@H]1[C@H]2COc3ccc(OC)cc3[C@@H]2N2C(=O)CN(CCc3c[nH]c4ccccc34)C(=O)[C@@]12C | -12.9
2 | Cc1ccccc1C(=O)NNC(=O)c1ccc(Br)cc1 | 8.09
3 | Cc1cnc(C(=O)OCC(=O)Nc2c(Cl)cc(Cl)cc2Cl)cn1 | 12.7
4 | COc1cccc(OC)c1C(=O)Nc1ccc2nc(C)c(C)nc2c1 | -4.75
5 | COc1ccc(NC(=O)CCS(=O)(=O)c2ccc(OC)cc2)cc1 | 3.33
6 | CCc1ccc(CNC(=O)c2ccc(OC3CCN(C(C)=O)CC3)c(OC)c2)nc1 | 8.11
7 | CN(C)c1ccnc2sc(C(N)=O)c(N)c12 | 5.57
8 | COC(=O)c1c(NC(=O)C2Cc3ccccc3C(=O)O2)sc2c1CCCC2 (centres unmarked) | 17.1
9 | CC(=O)NC1C(=O)N=C(SCC(=O)NC(C)c2ccccc2)NC1=O (centres unmarked) | 18.1
10 | O=C(COc1ccc(F)cc1)Nc1nc(-c2ccccn2)cs1 | -6.59
11 | CCOC(=O)CNC(=O)N1CCCC(CCC(=O)NCc2ccc(F)c(F)c2)C1 (centres unmarked) | 13.9
12 | COc1ccccc1OCC(=O)NCCCN1CCOCC1 | 10.7
13 | COc1ccccc1OCCCCNCCO | 6.62
14 | COc1ccccc1N1CCN(C2CCCN(C(=O)c3ccnc4ccc(C)cc34)C2)CC1 (centres unmarked) | -17.8
15 | CC(C)Cn1cc(C(=O)NCC2CCCO2)c2c3ccccc3n(C)c2c1=O (centres unmarked) | 0.13
16 | O=C(CC1OC(=O)c2ccccc21)Nc1ccccc1N1CCOCC1 (centres unmarked) | -9.97
17 | CC1CCCN(Cc2nc(Cc3ccccc3Cl)no2)C1 (centres unmarked) | 4.32
18 | COc1ccc(-n2c(=O)c3c(C)c(C)sc3n(Cc3cccc(F)c3)c2=O)c(OC)c1 | 17.2
19 | COc1ccccc1N(CC(O)Cn1c2ccccc2c2ccccc21)S(=O)(=O)c1ccccc1 (centres unmarked) | 20.5
20 | Nc1nnn(-c2ccccc2)c1-c1ccccc1 | 14.2
21 | O=C(NCc1ccccc1)c1cccnc1Sc1ccccc1 | 18.3
22 | CC(C)OC(=O)c1ccc(N2CCN(c3ccc(F)cc3)CC2)nc1 | -6.87
23 | O=C(COC(=O)CNS(=O)(=O)c1ccc(Br)cc1Cl)Nc1ccc(N2CCOCC2)cc1 | -12.9

Row | Compound | hERG current change (%, negative = inhibition) at 10uM [%]
24 | CN1N=C(C(=O)N2CCc3c([nH]c4ccccc34)C2c2ccccc2Cl)CCC1=O (centres unmarked) | -36.9
25 | COc1cc(C(=O)Nc2ccncc2)c([N+](=O)[O-])cc1OC | 17.8
26 | CC12CC3(C)CC(C)(C1)CC(C(=O)NC1=NCCS1)(C2)C3 | -17.1
27 | COc1ccccc1C(=O)C1CCCN(C(=O)c2ccccn2)C1 (centres unmarked) | 12.4
28 | COc1ccc(C2C(C#N)=C(C)NC3=C2S(=O)(=O)c2ccccc23)cc1 (centres unmarked) | -38.6
29 | O=C(NCc1ccc(F)cc1)c1ccc(N2CCOCC2)c([N+](=O)[O-])c1 | -39.6
30 | CCOC(=O)c1c(CN2CCCCC2)oc2ccc(OC)cc12.Cl | -58.4
31 | COc1cc(OC)cc(C(=O)Nc2ccc(-c3nc4ccccc4o3)cc2)c1 | -12.9
32 | O=c1cnnc(N/N=C/c2cccs2)[nH]1 | 13.5
33 | O=C(NCc1ccco1)C1CCN(C(=O)c2ccc([N+](=O)[O-])cc2)CC1 | -53
34 | Cc1ccc(NC(=O)CSc2nc3c([nH]c4ccccc43)c(=O)n2C)cc1 | 8.54
35 | Cc1cccc(Nc2nnc(SC/C(O)=C(\C#N)c3nc4ccccc4[nH]3)s2)c1 | 16.7
36 | Cc1ccc(N(C(=O)c2csnn2)C(C(=O)NC(C)(C)C)c2cccs2)cc1 (centres unmarked) | -45.4
37 | Cc1cccc(NC(=O)C2CCN(S(=O)(=O)c3ccc4ccccc4c3)CC2)n1 | -0.00682
38 | CCCOC(=O)CCNc1n[nH]c(=O)[nH]c1=O | -3.66
39 | c1cc(-c2nnn(CCOCCn3nnc(-c4ccncc4)n3)n2)ccn1 | -0.329
40 | Cc1ccc(-n2nc3c(N4CCC(C(=O)NCc5cccc(F)c5)CC4)nnc(C)c3c2C)cc1 | -3.23
41 | O=C(O)c1ccc(NCc2ccncc2)cc1 | -10
42 | Cc1ccc(CCNC(=O)CCc2nc3ccccc3[nH]2)cc1 | -13.8
43 | COc1ccc(OC)c(NC(=O)CSc2nnc(CCCO)n2-c2ccccc2)c1 | -16.5
44 | O=C(Nc1ccncc1)Nc1ccc(Cl)cc1Cl | 30.3
45 | COc1ccc(CNC2CC(C)N(C)CC2C)cc1OC.Cl (centres unmarked) | 12.9
46 | O=C(NCc1ccc(F)cc1)C(=O)NCC1OCCN1C(=O)c1ccc(Cl)cc1 (centres unmarked) | -43.2

Row | Compound | hERG current change (%, negative = inhibition) at 10uM [%]
47 | Cc1ccc(NC(=S)Nc2ncccc2C)c(C)c1 | 3.44
48 | CSc1cccc(NC(=O)c2ccco2)c1 | -7.24
49 | O=C(COc1ccc(S(=O)(=O)N2CCOCC2)cc1Cl)NCCCn1ccnc1 | 11.1
50 | c1coc(C2Nc3cccc4cccc(c34)N2)c1 | 5.08
51 | CCS(=O)(=O)c1c(S(=O)(=O)CC)c2ccccn2c1C(N)=O | 31.8
52 | COc1ccccc1NS(=O)(=O)c1cccc(C(=O)NNC(=O)c2ccc(O)c(Cl)c2)c1 | -12.3
53 | Cc1cccc(Cl)c1NC(=O)N1CCCN(c2ncccc2[N+](=O)[O-])CC1 | -17
54 | Cc1[nH]n(-c2cccc(Cl)c2)c(=O)c1C=NCC(C)C | 6.48
55 | O=C(COC(=O)Cc1cccc2ccccc12)Nc1ccccc1-c1ccccc1 | 9.26
56 | COc1ccc(NC(=O)CN2C(=O)COc3ccc(S(=O)(=O)N4CCCCC4)cc32)cc1OC | 5.18
57 | CCCc1nn(C)c(C(=O)Nc2cccc(Cl)c2)c1Cl | 4.22
58 | O=C(O)CC(CC(=O)N1CCOCC1)c1ccccc1 (centres unmarked) | 9.58
59 | O=C(Nc1ccccc1F)C1CCCN(S(=O)(=O)c2ccccc2)C1 (centres unmarked) | -10.3
60 | Cc1nc2cccnc2nc1C | -0.447
61 | O=C(CCC(=O)OCC(=O)c1ccc([N+](=O)[O-])cc1)Nc1ccccc1Cl | 4.2
62 | CCOC(=O)CC(=O)Nc1nnc(C(C)C)s1 | 18.4
63 | CCC(=O)Nc1nnc(SCC(=O)Nc2cccc(Cl)c2)s1 | -41.5
64 | CC(=O)NCCN1C(=O)S/C(=C\c2cccs2)C1=O | -4.53
65 | Clc1ccc2oc(-c3ccccc3)nc2c1 | 8.2
66 | CCOCCn1ccc2c(OCC(=O)Nc3ccc(OC)cc3OC)cccc2c1=O | 6.18
67 | COc1ccc(-c2sc(Nc3ccccc3)n[n+]2-c2ccccc2)cc1Br.[Cl-] | -48.7
68 | Cc1cccc(-c2noc(CCCC(=O)NC3CCCCC3)n2)c1 | 11.3
69 | NC(=S)NN=C1c2cc(OCCN3CCOCC3)ccc2-c2ccc(OCCN3CCOCC3)cc21 | -8.27

Row | Compound | hERG current change (%, negative = inhibition) at 10uM [%]
70 | O=C(COC(=O)c1ccccn1)NCc1ccc(Cl)cc1Cl | -8.18
71 | CC(C)c1ccc(NC(=O)Cn2nnc(C(=O)NCc3ccc4c(c3)OCO4)c2N)cc1 | 18
72 | Cc1cc(NC(=O)Cc2cccs2)nn1CC(=O)NCc1ccco1 | 4.69
73 | CCOc1ccc(N(CC(=O)NCc2ccco2)C(=O)CCC(=O)Nc2nccs2)cc1 | -4.65
74 | Cc1c(CC(=O)N2CCN(C(=O)C3COc4ccccc4O3)CC2)c(=O)oc2cc(O)cc(O)c12 (centres unmarked) | 24.8
75 | CC(=O)Nc1ccc(C=C(C(C)=O)C(C)=O)cc1 | 2.2
76 | Cc1ccc(S(=O)(=O)N(C)C)cc1NC(=O)Nc1ccccc1F | 9.15
77 | Cc1ccnc(NC(=O)c2ccccc2NC(=O)C(C)(C)C)c1 | -10.3
78 | NS(=O)(=O)c1ccc(CNC(=O)c2cccnc2Cl)cc1 | 10.1
79 | CCCCn1nc(NC(=O)c2cccs2)c2cc3ccccc3nc21 | -5.58
80 | c1ccc(CN2CCN(C(c3ccccc3)c3nnnn3Cc3ccccc3)CC2)cc1 (centres unmarked) | -64.7
81 | O=C(O)c1cc(-c2ccco2)nc2cc3ccccc3cc12 | 16.2
82 | Nc1nc(SCc2ccc(Cl)cc2Cl)ns1 | -5.61
83 | CC(C)CNC(=O)Nc1ccc(F)c(Cl)c1 | -2.1
84 | COc1ccc(-c2nn(-c3ccccc3)cc2C(=O)N2c3ccc(C)cc3C3CN(C)CCC32)cc1 (centres unmarked) | -31.7
85 | Nc1ccc(C2(c3ccc(N)cc3)c3ccccc3C(=O)c3ccccc32)cc1 | 13.2
86 | CCOC(=O)C1CC=C(Cl)CC1C(=O)Nc1nccs1 (centres unmarked) | 9.42
87 | Cc1ccc(NCC(=O)N/N=C\c2cccc(O)c2)cc1 | 1.98
88 | COc1cc(OCc2ccccc2)c(C(=O)/C=C/c2ccc3c(c2)OCO3)c(OC)c1OC | -0.152
89 | Cc1ccc(N=C2NC(=O)/C(=C/c3cccs3)S2)cc1C | 8.9
